The list shows a part of the results. Cleavage of a single-stranded DNA pool by Rep nickase domains was read by sequencing (3 µM enzyme, 1 h, 37 °C); shown is the middle of each 90-letter strand. A value is the log2 ratio of uncut reads to the pool without enzyme; uncut sequences lie near 0, cut ones below; no hit call is given. The scaling is to total reads; values above 0 arise when much of the pool is cut.
System: T1, Rep nickase domain of tomato golden mosaic virus
T1 sequence (protein, residues 1-124, tag omitted): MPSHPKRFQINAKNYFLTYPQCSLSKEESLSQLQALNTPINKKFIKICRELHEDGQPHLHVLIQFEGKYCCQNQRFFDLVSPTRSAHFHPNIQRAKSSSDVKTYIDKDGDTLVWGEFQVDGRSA
Test: uncleaved DNA left, log2 of reads against the no-enzyme library (log2 ratio); higher = less cleavage (more negative = more Rep cleavage of the k-mer); sequences stand for … in CTCGTCCG…ACCGGAGA
Description: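 A pool of 90-nt single-stranded DNAs with seven random bases just before the constant AC of the nick site (name = the seven bases) was cut by 3 µM recombinant His6-SUMO-tagged Rep nickase domain (300 nM DNA, 50 mM HEPES pH 8.0, 50 mM NaCl, 1 mM MnCl2, 1 h, 37 °C, three replicates). Uncut DNA was amplified and sequenced.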

| Sequence | uncleaved DNA left (log2) |
| --- | --- |
| TGAAGAC | -0.00079 |
| CAAATAT | -0.213 |
| TTGGTTG | -0.167 |
| AGTACTT | -0.0433 |
| GCCAATG | 0.206 |
| GACCCCA | 0.0335 |
| CGGATCT | -0.159 |
| CGGCGTG | -0.0276 |
| CGCGACA | -0.141 |
| GTGCGAC | 0.0205 |
| CACTAAC | -0.0501 |
| TGCCATC | -0.0973 |
| AGGCTTG | 0.219 |
| TGCCCGC | -0.0065 |
| TTGGAGG | 0.128 |
| CAAGTAT | -0.122 |
| GCGGCCA | -0.0615 |
| CGACGAA | -0.0244 |
| GTGTCCT | -0.0272 |
| GAGACGT | 0.106 |

| Sequence | uncleaved DNA left (log2) |
| --- | --- |
| TCCACTA | -0.0181 |
| CCTGAGC | -0.163 |
| TCTCTGT | -0.0277 |
| AGCATTC | -0.0619 |
| ATCCTTG | -0.17 |
| TTAATGT | 0.00187 |
| CCCACCC | -0.0596 |
| GGAACTC | -0.0328 |
| TCGGGAA | -0.0834 |
| GAGCCGG | 0.248 |
| GTTGTTC | 0.0771 |
| AGGGACG | 0.265 |
| AAGGGGA | 0.0144 |
| TCCCTTA | 0.0211 |
| GCGGGTG | 0.0516 |
| GACAGCC | -0.145 |
| GTTAGTC | 0.151 |
| AGCGCAC | -0.137 |
| GTAAGGA | 0.0879 |
| CGGCGTT | -0.247 |

Source: the supplement of paper PMC7826260
